# Measurements from paper PMC4336329 (PLoS ONE, 2015).
# Among all 310,000 compounds or so, about 2,200 (0.71%) showed an effect of 50% or more. The effect is printed as a negative number. Some of the results follow.
# Target: human ether-à-go-go-related gene (hERG) potassium channel (human, UniProt Q12809)
# Assay: primary screen, population patch clamp on CHO cells stably expressing hERG
# Sequence of human ether-à-go-go-related gene (hERG) potassium channel (Q12809 whole entry, looked up): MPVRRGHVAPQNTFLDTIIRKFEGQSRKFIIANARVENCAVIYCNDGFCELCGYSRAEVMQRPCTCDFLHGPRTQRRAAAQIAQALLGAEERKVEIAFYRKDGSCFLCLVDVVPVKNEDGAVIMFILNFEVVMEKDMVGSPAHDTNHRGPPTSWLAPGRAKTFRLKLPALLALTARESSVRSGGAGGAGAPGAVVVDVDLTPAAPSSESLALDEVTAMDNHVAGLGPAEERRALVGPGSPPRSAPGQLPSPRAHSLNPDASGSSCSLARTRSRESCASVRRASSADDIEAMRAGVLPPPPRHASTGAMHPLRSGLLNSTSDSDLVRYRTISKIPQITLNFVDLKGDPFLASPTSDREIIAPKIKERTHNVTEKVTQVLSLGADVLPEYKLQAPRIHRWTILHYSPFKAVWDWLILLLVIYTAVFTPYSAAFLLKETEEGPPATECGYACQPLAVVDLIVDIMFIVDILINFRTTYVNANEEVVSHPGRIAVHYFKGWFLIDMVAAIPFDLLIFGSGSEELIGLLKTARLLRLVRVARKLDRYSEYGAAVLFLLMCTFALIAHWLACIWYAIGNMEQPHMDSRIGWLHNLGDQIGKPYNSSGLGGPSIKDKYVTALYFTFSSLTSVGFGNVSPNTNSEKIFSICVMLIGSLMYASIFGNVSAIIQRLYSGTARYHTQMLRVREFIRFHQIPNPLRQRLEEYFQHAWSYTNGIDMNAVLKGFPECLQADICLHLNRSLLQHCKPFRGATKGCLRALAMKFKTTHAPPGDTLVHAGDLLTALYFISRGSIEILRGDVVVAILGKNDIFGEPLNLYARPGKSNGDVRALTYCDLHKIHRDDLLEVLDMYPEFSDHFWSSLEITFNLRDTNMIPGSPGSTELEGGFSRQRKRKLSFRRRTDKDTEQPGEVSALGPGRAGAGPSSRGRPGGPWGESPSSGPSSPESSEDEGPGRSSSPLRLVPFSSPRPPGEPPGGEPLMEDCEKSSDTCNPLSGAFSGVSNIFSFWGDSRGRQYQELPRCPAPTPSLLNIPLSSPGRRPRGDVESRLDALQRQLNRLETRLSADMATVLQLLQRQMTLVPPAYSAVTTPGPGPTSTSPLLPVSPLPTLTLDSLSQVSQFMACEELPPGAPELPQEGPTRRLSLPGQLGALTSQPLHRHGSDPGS
row,SMILES,"hERG current change (%, negative = inhibition) at 1uM [%]"
1,COc1ccc(NC(=O)c2ccc(NC(=O)CSc3nccc(=O)[nH]3)cc2)cc1,17.4
2,Cc1ccc(C(=O)OCC(=O)N2CCCCCC2)c(O)c1,8.6
3,CCOc1ccc(NC(=O)c2cc3c(=O)n(C)c4ccccc4c3n2C)cc1,8.36
4,COc1ccc(CNC(=O)[C@@H](NC(=O)C2CCN(C(=O)[C@@H]3CCCN3C(=O)OC(C)(C)C)CC2)C(C)C)cc1,-10.3
5,CCCCNC(=O)c1cn(CC)c2cc(N3CCN(C)CC3)c(F)cc2c1=O,9.71
6,COc1ccccc1CCNC(=O)C(=O)NCC1CCCN1S(=O)(=O)c1ccccc1 (stereo not shown),-5.91
7,Cl.N=C(N=C(N)N)N1CCOCC1,4.09
8,CCOc1ccc(CNC(=O)c2ccco2)cc1,8.69
9,CCCc1nc2sc3c(c2c(=O)n1NC(=O)CCC(=O)O)CCCC3,-0.0417
10,COc1ccc(OC)c(C2NC(=O)NC(C)=C2C(=O)OCc2ccccc2)c1 (stereo not shown),9.66
11,CCS(=O)(=O)Nc1cccc(-c2ccc3nnc(-c4cccnc4)n3n2)c1,17.8
12,CCc1nc2ccccc2n1Cc1ccccc1F,18.2
13,Cc1cc2oc(C(=O)Nc3ccc(S(=O)(=O)Nc4nccs4)cc3)cc(=O)c2cc1Cl,-7.77
14,Cc1ccc(OC(C)C(=O)Nc2ccc(F)cc2)c([N+](=O)[O-])n1 (stereo not shown),5.17
15,O=C(CN1C(=O)CCS(=O)(=O)c2ccccc21)Nc1ccc(Cl)cc1,10.2
16,Cc1sc(N(C(=O)CCc2ccccc2)c2ccc(C(=O)O)cc2)nc1-c1ccccc1,11.3
17,Cc1c(NC(=O)C(C)N2C(=O)C3C4C=CC(C4)C3C2=O)c(=O)n(-c2ccccc2)n1C (stereo not shown),13.9
18,COc1cc(C=O)ccc1OCCOCCOc1ccc(Cl)cc1Cl,10.5
19,COC(=O)[C@@H]1[C@@H](C(=O)OC)C2(c3ccccc3-c3ccccc32)N(c2ccc(Cl)cc2)N1C#N,7.26
20,Cc1ccsc1C(=O)NC(C)c1ccccc1 (stereo not shown),10.8
21,Cc1c(Cl)cccc1NC(=O)C1NC(=O)CC1c1ccccc1 (stereo not shown),18.2
22,COC(=O)C1CCN(C(=O)c2cc3ccccc3oc2=O)CC1,5.04
23,CCOC(=O)Cc1csc(NC(NC(=O)OCC)(C(F)(F)F)C(F)(F)F)n1,8.98
24,COc1ccccc1CC1C(=O)C2CCN1CC2 (stereo not shown),10.2
25,O=C(CSc1nnc(CNC(=O)c2ccco2)o1)Nc1cccc(F)c1,14.5
26,CC(=O)c1cccc(NC(=O)CCn2c(=S)oc3ccccc32)c1,12
27,O=C(CCSCc1cccc(F)c1)NCCc1ccccc1,15
28,Cc1cccc(C(=O)N2CCN(Cc3ccc4c(c3)OCO4)CC2)c1,4.12

row,SMILES,"hERG current change (%, negative = inhibition) at 1uM [%]"
1,COc1ccc(NS(=O)(=O)c2cccc(C(=O)NCC(c3ccc(OC)cc3)N3CCOCC3)c2)cc1 (stereo not shown),9.39
2,COC(=O)c1sccc1NC(=O)CSc1ccc(Cl)cc1,8.11
3,CS(=O)(=O)N(CC(=O)NCCSCc1ccco1)c1ccc2c(c1)OCO2,12.1
4,Cc1cc(F)c(F)c(C(=O)N2CCOCC2)c1Cl,24.7
5,COCCCNC(=O)c1ccc(CSCc2ccc(C)cc2)o1,5.23
6,O=S1(=O)[C@H]2C[C@@H]3C=C[C@@]2(CN1Cc1cccc(Cl)c1)O3,4.72
7,COc1ccc(S(=O)(=O)N2CCCCCC2)cc1C(=O)N(C)Cc1ccc(F)cc1,-6.89
8,O=C(CSc1nncc2ccccc12)Nc1cccc(C(=O)O)c1,15.2
9,Cc1cc(C(=O)Nc2c(F)cc(F)cc2Br)n(-c2ccccc2)n1,14.5
10,Cc1ccc(CNC(=O)C(=O)NCC2CCCN2S(=O)(=O)c2cc(C)ccc2C)cc1 (stereo not shown),8.32
11,CCc1ccc(OCC(=O)OCC(=O)c2ccc3c(c2)NC(=O)CO3)cc1,12.4
12,Cc1ccc(CNC(=O)CN(C(=O)C2(C)CC(=O)N=C3C=CC=CN32)c2ccccc2F)cc1 (stereo not shown),12.1
13,COC(=O)CN1C(=O)[C@H]2[C@@H](c3ccc(C)o3)N3C(=O)CN(Cc4ccccn4)C(=O)[C@@]3(C)[C@H]2C1=O,6.42
14,COc1ccc(N2CCN(C(=O)C3CCCN(S(=O)(=O)c4cccc5cccnc45)C3)CC2)cc1 (stereo not shown),5.91
15,CCNC(=S)N1CCN(C(=O)c2ccco2)CC1,-1.1
16,C=CCOc1ccccc1C1C2=C(CC(C)(C)CC2=O)Nc2c1c(=O)n(C)c(=O)n2C (stereo not shown),8.75
17,CC(C)(C)c1n[nH]c2c1CCCC2,8.71
18,Brc1ccc(CN2CCN(c3ccccn3)CC2)s1,5.59
19,N#Cc1ccccc1Cn1cc(/C=N/Nc2ccc([N+](=O)[O-])cn2)c2ccccc21,10.8
20,CN(C)S(=O)(=O)c1cccc2nsnc12,38.3
21,CCOC(=O)c1c(-c2ccc(C)o2)csc1NC(=O)CN1CCN(CC)CC1,1.81
22,CCOc1ccc(-n2c(=S)sc3c(=O)[nH]c(SCC(=O)NC(C)CC)nc32)cc1 (stereo not shown),17.8
23,CC(C)CC(=O)Nc1ccc(-c2cn3cccnc3n2)cc1,30.1
24,Cc1ccc(Oc2coc3cc(O)ccc3c2=O)cc1,10.9
25,COc1ccccc1NC(=S)N1CCN(Cc2ccccc2)CC1,9.8
26,COc1ccc(NS(=O)(=O)c2ccc(N3CC(O)=C(c4ccccc4)C3=N)cc2)cc1,11.3
27,CC1=C(C(=O)Nc2ccc(Cl)cc2)C(c2ccncc2)C(C#N)=C(SCC(N)=O)N1 (stereo not shown),13.2
